According to the RNAGym collection of RNA variant scans (doi:10.1073/pnas.2313332121):
This sample is rich in variants without activity.

B1: TPR 5TU (parent)
chain: GGAUCUUCUCGAUCUAACAAAAAAGACAAAUCUGCCACAAAGCUUGAGAGCAUCUUCGGAUGCAGAGGCGGCAGCCUUCGGUGGCGCGAUAGCGCCAACGUUCUCAACUAUGACACGCAAAACGCGUGCUCCGUUGAAUGGAGUUUAUCAUG

Variants of: B1
Assay: polymerase ribozyme fitness, log enrichment relative to wild type (log ratio); higher = more active; in vitro selection for triplet polymerase activity
How it was run: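 Genotype fitness is the logarithm of its enrichment divided by wild-type enrichment, using inverse-variance-weighted averages of replicates. That logarithm is base 2. Enrichment was measured by Illumina sequencing of input and output libraries from one triplicate in vitro selection round, with frozen incubation at −7 °C, on PCR-built, transcribed mutant libraries of each subunit of a heterodimeric triplet polymerase ribozyme, retaining genotypes with ≥10 input reads and ≥1 read per output.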

GGAUCUUCUCGAUCUAACAAAAAAGACAAAUCUACCACAAAGCUUGAGAACAUCUUCGGAUGCAGAGUCGACAGCAUUCGGUGGAGCGAUAGCGCCAACGUUCUCAACUAUGACACGCAAAACGUGUGCUCCGUUGAAUGGAGUUUAUCAUG [G34A G50A G68U G71A C76A C85A C125U] and GGAUCUUCUCGAUCUAACAAAAAAGACAAAUCUACCACAAAGCUUGAGACCAUCUUCGGAUGCAGAGGCGGCAGCCUUCGGUGGCGCGAUAUCGCCAACGUUCUCAACUAUGACACGCAAAACGCGUGCUCCGUUGAAUGGAGUUUAUCAUG [G34A G50C G92U] cannot be ordered by “polymerase ribozyme fitness (log ratio)” value: no more than -4.2 for the first, no more than -4.2 for the second.

GGAUCUUCUCGAUCUAACAAAAAAGACAAAUCUACCACAAAGCUUGAGAUCGUCUUCGCAUGCAGAGGCGGCAGCCUUCGGUGGCGCGAUGGCACCAACGUUCUCAACUAUGACACACGAAACGCGUGCUCCGUUGAAUGGACUUUAUCAUG [G34A G50U A52G G59C A91G G94A G117A A119G G143C] and GGAUCUUCUCGAUCUAACAAAAAAGACAAAUCUACCACAAAGCUUGAGAGCAUCUUCCGAUGCAGAGGCGGCAGCCUUCGGUGGCGCGAUAGCGCCAACGUUCUCAACUAUGCCACGCAAAACGCGUGCUCCUUUGAGUGGAGUUUAUCAUG [G34A G58C A113C G133U A138G] cannot be ordered by “polymerase ribozyme fitness (log ratio)” value: no more than -4.2 for the first, no more than -4.2 for the second.

Compared with GGAUCUUCUCGAUCUAACAAAAAAGACAAAUCUACCACAAAGCUUGAGAGCAUCUUCGGAUGCAGAGGCGGCACCCUUCGGUGGCGCGAUAGCGCCAACGUUCUCAACUAUGACACGCAAAACGCGUGCUCCGUUGAAUGGAGUUUAUCAUG [G34A G74C], GGAUCUUCUCGAUCUAACAAAAAAGACAAAUCUACCACAAAGCUUGAGAGCAUCUUCGGAUGCAGAGGCGGCAGCCUUCGGUGGCGCGAUAGCGCCAACGUUCUCAACUAUGACACGCAAAACGCGUGCUCCGUUGAAUAGAGUUUAUCAUG [G34A G140A] is higher in “polymerase ribozyme fitness (log ratio)” value: no more than -4.2 for the first, -3.88 for the second.

GGAUCUUCUCGAUCUAACAAAAAAGACAAAUCUACCACAAAGCUUGAGAGCAUCGUCGGAUGCAGAGGCGGCAGCCUUCGGUGGCGCGAUAGUGCCAACGUUCUCAACAAUGACACGCAAAACGCGUGCUCCGUUGACUGGAGUUUAUCAUG [G34A U55G C93U U109A A138C] and GGAUCUUCUCGAUCUAACAAAAAAGACAAAUCUACCACAAAGCUUGAGAGCAUCUACGGAUGCAGAGGCGGCAACCUUCGGUGGCGCGAUAGCGCGAGCGUUCUGAACUAUGACACGCAAAACGCGUGCUCCGUUGAACGGAGUUUAUCAUG [G34A U56A G74A C96G A98G C105G U139C] cannot be ordered by “polymerase ribozyme fitness (log ratio)” value: no more than -4.2 for the first, no more than -4.2 for the second.

Going from GGAUCUUCUCGAUCUAACAAAAAAGACAAAUCUACCACAAAGCUUGAGAGCAUCUACGGAUGCAGAGGCGGCAGCCUUCGGUGGCGCGAUACCGCCAACGUUCUCAACUAUGACACGCAAAACGCGUGCUCCGUUGAAUGGAGUUUAUCAUG [G34A U56A G92C] to GGAUCUUCUCGAUCUAACAAAAAAGACAAAUCUACCACAAAGCUUGAGAGCAUCUUCGGAUGCAGAGGCGGCAGCCUUCGGUGGCGCGAUAGCGCCAACGUUCUCAACUACGCCACGCAAAACUCGUGCUCCGUUGAAUGGAGUUUAUCAUU [G34A U111C A113C G124U G152U], the “polymerase ribozyme fitness (log ratio)” value falls from -1.65 to no more than -4.2.

GGAUCUUCUCGAUCUAACAAAAAAGACAAAUCUCCCACAAAGCUUGAGCGCAUCAACGGAUGCAGAGGCGGCAGCCUUCGGUGGCGCGAUAGCGCCAACGUUCUCAACUAUGACACGCAAGACGCGUGCUCCGUUGAAUGGAGUUUAUCAUG [G34C A49C U55A U56A A121G] and GGAUCUUCUCGAUCUAACAAAAAAGACAAAUCUCCCACAAAGCUUGAGAGCAUCUUCGGAUGCAGGGGCGGCAGCCUUCGGUGGCUCGAUAGCGCCAACGUUCUCACCUAUGACACGCAAAACGCGUGCUCCGUUGAAUGUAGUUUAUCAUG [G34C A66G G86U A107C G141U] cannot be ordered by “polymerase ribozyme fitness (log ratio)” value: no more than -4.2 for the first, no more than -4.2 for the second.

GGAUCUUCUCGAUCUAACAAAAAAGACAAAUCUCCCACAAAGCUUGAGAGCAUCUUCGGAUGCAGAGGCGGUAGCCUUCGGUGGCUCCAUAGCGCCAACGUUCUCAACUAUGACACGCAAAACGCGUGCUCCGUUGAAUGGAGUUUAUCGUG [G34C C72U G86U G88C A150G] and GGAUCUUCUCGAUCUAACAAAAAAGACAAAUCUCCCACAAAGCUUGAGAGCAUCUUCGGAUGCAGAGGCGGCAGCAUUCGGUGGCGCGAUAGCGUCAACGUUCUCAACUAUGACACGCAAAACGCGUGCUCCGUUGAAUGGCGUUUAUCAUG [G34C C76A C95U A142C] cannot be ordered by “polymerase ribozyme fitness (log ratio)” value: no more than -4.2 for the first, no more than -4.2 for the second.

GGAUCUUCUCGAUCUAACAAAAAAGACAAAUCUCCCACAAAGCUUGAGAGCAUCAUCGGAUGCAGAGGCGGCAGCCUUCGGUGGCGCGAUUGCUCCAACGUUCUCAACUAUGACACGCAAAACGCGUGCUCCGUUGAAUGGAGUUUAUCAUG [G34C U55A A91U G94U] and GGAUCUUCUCGAUCUAACAAAAAAGACAAAUCUCCCACAAAGCUUGAGAGCAUCUUCGGAUGCAGAGGCGGCAGCCUCCGGUGGCGCGAUGGCGCCAACGUUCUCAACUAUGACACGCAAAACGCGUGCUCCGUUGAAUGGAGUUAAUCAUG [G34C U78C A91G U146A] cannot be ordered by “polymerase ribozyme fitness (log ratio)” value: no more than -4.2 for the first, no more than -4.2 for the second.

GGAUCUUCUCGAUCUAACAAAAAAGACAAAUCUUCCUCAAAGCUUGAGAGCAUCAUCGGAUGCAGAGGCGGCAGCCUUCGGUGGCGCGAUAGCGCCAACGUUCUCAACUAUGACACGCAAAACGCGUGCUCCGUUUAAUGGAGUUUAUCAUG [G34U A37U U55A G136U] and GGAUCUUCUCGAUCUAACAAAAAAGACAAAUCUUCCACAAGGCUUGCGAGCAUCUUCGGAUGCAGAGGCGGCAGCCUUCGGUGGCGCGAUAGCGCCAACGUUCUCAACUAUGACAUGCAAAACGCGUGCUCCGUUGAAUGGAGUUUAUCAUG [G34U A41G A47C C116U] cannot be ordered by “polymerase ribozyme fitness (log ratio)” value: no more than -4.2 for the first, no more than -4.2 for the second.

In the case of GGAUCUUCUCGAUCUAACAAAAAAGACAAAUCUUCCACAAAGCUUGCGAGCGUCUUCAGAUGCAGAGGCGGCAGCCUUCUGUGGCGCGACUGCGCCAACGUUCUAAAUUAUGACACGCAAAACGCGUGCUCCGUUGAAUGGAGUUUAUCAUG [G34U A47C A52G G58A G80U U90C A91U C105A C108U], the “polymerase ribozyme fitness (log ratio)” value is reported as no more than -4.2.
